Test results: PubChem BioAssay AID504332 (National Center for Advancing Translational Sciences (NCATS), 2011)
Screen size: about 350,000 compounds; about 31,000 (8.9%) were called active. Inconclusive results, whose numbers are uncertain, are shown with a selection of clear calls. Calls come from the whole dose curve; as a rule, active = well fitted inhibition curve with a large enough effect; inconclusive = small, poorly fitted or top-dose-only effect; inactive = no such curve, though single readings can be large or run the other way. A potency beside an inconclusive call is a rough fit, not a confirmed value.

Target: Histone-lysine N-methyltransferase EHMT2 (Homo sapiens) (UniProt Q96KQ7)
Assay: qHTS Assay for Inhibitors of Histone Lysine Methyltransferase G9a; note: nearly all actives have a fitted effect of over 75% in size
Settings: G9a H3K9 monomethylation, AlphaScreen, 2 h; activity, negative = inhibition: at 59 µM (top of the series) unless noted
Procedure, shortened: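 Quantitative HTS format: methyltransferase activity on a biotin-tagged H3K9 peptide is measured by AlphaScreen, using a rabbit anti-monomethyl-H3K9 antibody with streptavidin donor and anti-IgG acceptor beads. Final levels are 20 nM enzyme, 500 nM peptide, 20 uM SAM; 2 h RT.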
% is set by controls: 0 for no effect and ±100 for the full control effect; potency is the fitted concentration of half-maximal effect; tags give direction and shape of the fitted curve.

Sequence of UniProt Q96KQ7 (Q96KQ7 whole entry, looked up): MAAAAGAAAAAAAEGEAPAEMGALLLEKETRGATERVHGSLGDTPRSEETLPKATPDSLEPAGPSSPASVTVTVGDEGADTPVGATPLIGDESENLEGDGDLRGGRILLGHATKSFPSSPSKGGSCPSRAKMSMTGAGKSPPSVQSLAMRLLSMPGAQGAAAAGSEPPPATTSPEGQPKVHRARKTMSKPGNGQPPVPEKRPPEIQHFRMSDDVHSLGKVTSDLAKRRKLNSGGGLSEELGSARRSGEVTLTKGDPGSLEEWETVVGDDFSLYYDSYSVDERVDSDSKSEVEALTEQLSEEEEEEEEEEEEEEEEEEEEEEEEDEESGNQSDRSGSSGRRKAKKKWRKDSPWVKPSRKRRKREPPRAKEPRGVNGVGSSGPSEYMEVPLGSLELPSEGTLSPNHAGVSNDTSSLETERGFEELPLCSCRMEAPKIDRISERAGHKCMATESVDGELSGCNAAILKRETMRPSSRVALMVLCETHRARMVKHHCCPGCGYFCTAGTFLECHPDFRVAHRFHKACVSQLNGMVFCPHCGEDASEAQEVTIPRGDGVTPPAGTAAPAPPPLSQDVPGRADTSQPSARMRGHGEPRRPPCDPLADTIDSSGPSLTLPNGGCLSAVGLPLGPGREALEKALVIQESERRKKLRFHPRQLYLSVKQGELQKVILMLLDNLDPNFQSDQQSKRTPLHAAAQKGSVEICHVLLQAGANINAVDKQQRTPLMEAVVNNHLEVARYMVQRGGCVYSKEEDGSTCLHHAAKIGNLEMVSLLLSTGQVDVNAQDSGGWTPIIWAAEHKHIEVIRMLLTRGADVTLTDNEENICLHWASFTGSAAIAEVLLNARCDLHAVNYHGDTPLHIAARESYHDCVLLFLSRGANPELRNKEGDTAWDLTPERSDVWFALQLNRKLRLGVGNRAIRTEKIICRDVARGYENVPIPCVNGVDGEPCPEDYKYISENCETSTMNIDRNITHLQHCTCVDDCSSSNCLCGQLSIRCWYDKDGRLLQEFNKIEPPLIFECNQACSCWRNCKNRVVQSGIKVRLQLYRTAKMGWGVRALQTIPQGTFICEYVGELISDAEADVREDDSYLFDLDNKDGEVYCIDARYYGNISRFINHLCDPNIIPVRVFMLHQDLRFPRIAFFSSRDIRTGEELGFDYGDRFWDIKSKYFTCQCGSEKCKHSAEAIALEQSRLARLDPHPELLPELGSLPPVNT

Row | Structure (SMILES) | Potency | activity, negative = inhibition
1 | O=C(CCn1c(SCC(=O)NCc2ccco2)nc2ccccc2c1=O)NCCc1ccccc1 | inconclusive: 79.4 µM [inhibitor, partial curve, poor fit] | –
2 | COc1cc(Cl)c(C)cc1NC(=O)CSc1cc(Cl)ccc1Cl | inconclusive: 70.8 µM [inhibitor, single point] | –
3 | CCc1nc(NCc2ccco2)c2oc3ccccc3c2n1 | inconclusive: 39.8 µM [inhibitor, partial curve, poor fit] | –
4 | O=C(O)C1OC(Oc2c(-c3ccc(O)c(O)c3)oc3cc(O)cc(O)c3c2=O)C(O)C(O)C1O (stereo not drawn) | active: 31.6 µM | –
5 | O=C(CCS(=O)(=O)c1ccccc1)Nc1nc2cc3c(cc2s1)OCO3 | inconclusive: 89.1 µM [inhibitor, single point] | –
6 | Nc1ccc(-n2cc(-c3ccccc3)[nH]c2=S)cc1 | active: 7.94 µM | –
7 | COc1ccccc1-c1nn(CCC(=O)Nc2ccc(C)cc2)c2nc(C)cc(C)c12 | – | inactive: 6.32%
8 | CC(Oc1ccc(Cl)cc1)C(=O)Nc1ncccn1 (stereo not drawn) | inconclusive: 79.4 µM [inhibitor, partial curve, poor fit] | –
9 | FC(F)(F)c1cccc(N2CCN(c3nnnn3-c3ccccc3)CC2)c1 | – | inactive: 26.7% [at 12.7 µM]
10 | Cc1ccccc1NC(=O)CSc1ccc(-c2ccccn2)nn1 | active: 11.2 µM | –
11 | OCCn1c(CSc2nnc(-c3ccco3)n2-c2ccccc2)nc2ccc(Cl)cc21 | inconclusive: 3.16 µM [inhibitor, partial curve, poor fit] | –
12 | CCOC(=O)c1cnc2ccc(C(=O)OC)cc2c1Nc1ccc(OCc2ccccc2Cl)cc1 | – | inactive: -3.79%
13 | O=CNn1cnc2c(oc3nc(-c4ccccc4)cc(-c4ccco4)c32)c1=O | active: 50.1 µM | –
14 | Cc1ccc(S(=O)(=O)NN2C(=O)/C(=C/c3cccs3)SC2=S)cc1 | active: 20 µM | –
15 | CC(=O)NC(CC(=O)Nc1ccc2c(c1)OCCO2)c1ccccc1 (stereo not drawn) | inconclusive: 89.1 µM [inhibitor, single point] | –
16 | CCC(CC)c1nnc(NC(=O)C2CC(=O)N(CCc3ccc(F)cc3)C2)s1 (stereo not drawn) | active: 3.16 µM | –
17 | Cc1nc(-c2ccc(Cl)cc2)sc1C1(C)CC(c2cccnc2)=NO1 (stereo not drawn) | – | inactive: -47.6%
18 | CC(C)Oc1ccc(CNC(=O)c2cnc3sc(N4CCCC4)nn3c2=O)cc1 | – | inactive: 15%
19 | O=C(OCC(=O)N1CCN(C(=O)c2ccco2)CC1)c1ccc(S(=O)(=O)N2CCCCC2)cc1 | inconclusive: 89.1 µM [inhibitor, single point] | –
20 | O=C(NCC(c1ccc2c(c1)OCO2)N1CCN(c2ccccc2)CC1)C(=O)Nc1ccccc1F (stereo not drawn) | – | inactive: -25.1%
21 | N=P(N1CCOCC1)(N1CCOCC1)C12CC3CC(CC(C3)C1)C2 | – | inactive: -2.56%
22 | Cc1cc(C(=O)OCC(=O)NCc2ccco2)c(C)n1-c1ccc(F)cc1 | inconclusive: 28.2 µM [inhibitor, single point] | –
23 | CCC(=O)NC(c1ccccc1)c1nc2ccccc2[nH]1 (stereo not drawn) | inconclusive: 2.51 µM [inhibitor, partial curve, poor fit] | –

Row | Structure (SMILES) | Potency | activity, negative = inhibition
24 | COc1ccccc1Nc1nn2c(=O)c3ccc(C(=O)NCCc4ccccc4)cc3nc2s1 | inconclusive: 3.55 µM [inhibitor, partial curve, poor fit] | –
25 | COc1ccc(-c2c3c([nH]c(=S)c2C#N)CCC3)cc1 | inconclusive: 0.891 µM [inhibitor, full curve, poor fit] | –
26 | COc1ccc(CCNc2oc(COc3ccccc3)nc2C#N)cc1 | inconclusive: 20 µM [inhibitor, partial curve, poor fit] | –
27 | C=Cn1cc[n+](CC(=O)c2ccc(Br)s2)c1 | inconclusive: 89.1 µM [inhibitor, single point] | –
28 | Cc1ccc(-c2nnc3ccccc3c2C(=O)Nc2ccc(F)cc2)cc1 | – | inactive: 1.28%
29 | COc1ccc(-n2nnc3c(=O)n(CC(=O)Nc4ccc5c(c4)OCCO5)cnc32)cc1OC | – | inactive: -20.7% [at 102 µM]
30 | CCCCN(C(=O)NC(=O)C1=C(N2CCOCC2)/C(=C/c2ccccc2)CC1)S(C)(=O)=O | inconclusive: 22.4 µM [inhibitor, single point] | –
31 | O=C(CSc1nnc(-c2cnccn2)n1Cc1ccco1)c1ccccc1 | active: 44.7 µM | –
32 | COc1cccc(=O)c2c(C)n(CC(=O)c3ccccc3)c(C)c12 | inconclusive: 20 µM [inhibitor, single point] | –
33 | CC1(c2ccccc2)NC(=O)N(CC(=O)Nc2ccccc2N2CCCCC2)C1=O (stereo not drawn) | – | inactive: 7.54% [at 0.501 µM]
34 | COCCNc1nc(SCC(=O)N2CCN(c3ccccc3)CC2)nc2ccccc12 | inconclusive: 22.4 µM [inhibitor, single point] | –
35 | O=C(CSc1nc2[nH]ncc2c(=O)n1-c1ccccc1)c1ccc2c(c1)OCCO2 | – | inconclusive: -76.6% [inhibitor]
36 | Cc1nc2ccc(S(=O)(=O)NC(C(=O)Nc3nccs3)C(C)C)cc2s1 (stereo not drawn) | inconclusive: 20 µM [inhibitor, partial curve, poor fit] | –
37 | c1ccc(-c2ccn3nnnc3n2)cc1 | inconclusive: 39.8 µM [inhibitor, single point] | –
38 | Cc1ccc(-n2c(N)c(C(=O)N3CCN(C)CC3)sc2=S)cc1 | active: 2 µM | –
39 | COCCN1C(=O)C(O)=C(C(C)=O)C1c1ccc(OC)c(OC)c1 (stereo not drawn) | active: 44.7 µM | –
40 | Cc1c(CN(C)C)c2c(n1Cc1ccccc1)C(=O)c1ccc(Br)cc1-2 | active: 17.8 µM | –
41 | COc1ccc(CCNC(=O)C2CC(=O)N(c3ccccc3)C2)cc1OC (stereo not drawn) | inconclusive: 50.1 µM [inhibitor, partial curve] | –
42 | CCOc1ccc(-c2noc(CCC(=O)NC3CCCC3)n2)cc1OC | – | inactive: 20.6% [at 102 µM]
43 | CCOC(=O)c1cnc2ccc(OCC)cc2c1NCc1cccnc1 | – | inactive: 0.027% [at 102 µM]
44 | CC(C)N1CCc2c(sc(NC(=O)CCS(=O)(=O)c3ccccc3)c2C#N)C1 | inconclusive: 112 µM [inhibitor, partial curve, poor fit] | –
45 | Cc1cc(C)c(C)c(S(=O)(=O)Nc2ccccc2C(=O)NCCCn2ccnc2)c1C | inconclusive: 7.94 µM [inhibitor, partial curve, poor fit] | –
46 | COc1cc2c(cc1OC)C(c1ccc(N)cc1)=NNC(=O)C2 | – | inactive: -22.6%

Row | Structure (SMILES) | Potency | activity, negative = inhibition
47 | O=C(c1cnccn1)N1CCc2c([nH]c3ccccc23)C1c1cccc(Cl)c1 (stereo not drawn) | inconclusive: 44.7 µM [inhibitor, partial curve] | –
48 | CCOC(=O)C1CCN(C(=O)Cc2c(F)cccc2Cl)CC1 | – | inactive: 21.3%
49 | O=C(CSc1n[nH]c(-c2ccccc2)n1)N1CCN(c2ccc(F)cc2)CC1 | – | inactive: -2.07%
50 | Cc1noc(Cn2c(=O)c3ccccc3n(CC(=O)Nc3cc(Cl)ccc3C)c2=O)n1 | – | inactive: 2.63%
51 | CCOC(=O)c1[nH]c2ccccc2c1NC(=O)c1ccc(C)c(C)c1 | inconclusive: 14.1 µM [inhibitor, partial curve, poor fit] | –
52 | Cc1onc(-c2ccccc2Cl)c1C(=O)NC1C(=O)N2C1SC(C)(C)C2C(=O)O (stereo not drawn) | – | inactive: -3.19% [at 2.33 µM]
53 | Cc1ccsc1C1NC(=O)c2c(sc3c2CCCC3)N1 (stereo not drawn) | inconclusive: 22.4 µM [inhibitor, single point] | –
54 | CC1(C)Cc2c(cnn2-c2ccc(F)cc2)C(NC(=O)CCN2CCCCC2=O)C1 (stereo not drawn) | – | inactive: 12.7% [at 102 µM]
55 | Cc1cc(C)cc(N2C(=O)CC(Sc3ccccc3C(=O)O)C2=O)c1 (stereo not drawn) | inconclusive: 3.55 µM [inhibitor, partial curve, poor fit] | –
56 | O=C(O)c1ccc(NC(=O)c2ccc3c(c2)C(=O)N(CC2CCCO2)C3=O)cc1 (stereo not drawn) | inconclusive: 89.1 µM [inhibitor, single point] | –
57 | CCC(c1nnnn1CCOC)N(Cc1ccc(C)cc1)Cc1cc2cc(OC)ccc2[nH]c1=O (stereo not drawn) | – | inconclusive: -68.8% [inhibitor]
58 | Cc1ccc(-n2c(C)c([N+](=O)[O-])c3ccc(O)c(CN(C)C)c32)cc1 | inconclusive: 35.5 µM [inhibitor, single point] | –
59 | COn1c(=O)c(-c2cccc(Br)c2)[n+]([O-])c2ccccc21 | – | inactive: 7.2% [at 102 µM]
60 | CC(C)NC(=O)COc1coc(CN2CCN(c3cccc(Cl)c3)CC2)cc1=O | inconclusive: 89.1 µM [inhibitor, single point] | –
61 | CCN(CC)c1ccc(-c2n[nH]c(=S)n2-c2ccccc2C)cc1 | inconclusive: 22.4 µM [inhibitor, full curve] | –
62 | Cc1ccc(C)c(N2CCN(CCCNC(=O)c3cnn(-c4cccc(Cl)c4)c3C3CCN(C(=O)OC(C)(C)C)CC3)CC2)c1 | inconclusive: 15.8 µM [inhibitor, partial curve, poor fit] | –
63 | CC(C)c1ccc(CNc2ccc([N+](=O)[O-])cn2)cc1 | inconclusive: 39.8 µM [inhibitor, partial curve, poor fit] | –
64 | Cc1nn(-c2ccccc2)c(Cl)c1C(=O)OC(C)C(=O)NC(=O)NC1CCCCC1 (stereo not drawn) | inconclusive: 56.2 µM [inhibitor, partial curve, poor fit] | –
65 | O=C(NN1C(=O)c2cc(Br)ccc2NC1c1cc(Br)cc(Br)c1O)c1ccncc1 (stereo not drawn) | inconclusive: 28.2 µM [inhibitor, single point] | –
66 | COc1ccc(C2/C(=C(/O)c3ccccc3)C(=O)C(=O)N2C)cc1 (stereo not drawn) | inconclusive: 28.2 µM [inhibitor, single point] | –
67 | CCc1cccc(OCC(=O)Nc2ccc(S(=O)(=O)Nc3onc(C)c3C)cc2)c1 | inconclusive: 89.1 µM [inhibitor, single point] | –
68 | Cc1ccc(CNC(=O)C2CCN(C(=O)N3CC(C)Oc4ccc(Cl)cc43)CC2)cc1 (stereo not drawn) | inconclusive: 15.8 µM [inhibitor, partial curve, poor fit] | –
